Experimental data from PMC4576195.
No constants are given. Whether binding was seen depends on the method and setting. Binding seen in cells or lysates may run through a third protein. Some entries that bind do so weakly or less than the wild type.

Amino acid sequences for entries named in this document (tags omitted). A change or cut given only in a name is not applied to a line headed by its entry.
UniProt O60563: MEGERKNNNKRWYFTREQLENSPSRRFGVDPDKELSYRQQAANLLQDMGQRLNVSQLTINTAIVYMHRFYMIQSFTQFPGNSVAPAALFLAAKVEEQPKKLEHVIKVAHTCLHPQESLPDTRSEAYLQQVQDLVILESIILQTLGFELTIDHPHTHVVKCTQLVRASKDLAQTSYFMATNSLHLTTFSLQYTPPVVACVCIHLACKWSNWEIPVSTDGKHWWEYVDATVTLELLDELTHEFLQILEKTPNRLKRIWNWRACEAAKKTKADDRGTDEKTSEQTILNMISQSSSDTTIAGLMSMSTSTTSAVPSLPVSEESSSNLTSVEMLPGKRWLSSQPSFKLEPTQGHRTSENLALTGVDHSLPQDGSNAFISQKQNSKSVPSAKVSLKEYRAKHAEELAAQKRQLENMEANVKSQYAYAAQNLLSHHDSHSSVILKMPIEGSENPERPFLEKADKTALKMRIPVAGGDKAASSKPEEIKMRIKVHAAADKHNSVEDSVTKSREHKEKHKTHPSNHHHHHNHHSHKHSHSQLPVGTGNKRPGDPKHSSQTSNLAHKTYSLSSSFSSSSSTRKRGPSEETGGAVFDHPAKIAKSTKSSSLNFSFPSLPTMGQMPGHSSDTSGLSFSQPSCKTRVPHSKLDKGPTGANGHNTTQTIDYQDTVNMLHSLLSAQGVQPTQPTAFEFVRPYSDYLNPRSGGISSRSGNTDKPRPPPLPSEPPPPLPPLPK
UniProt P16788: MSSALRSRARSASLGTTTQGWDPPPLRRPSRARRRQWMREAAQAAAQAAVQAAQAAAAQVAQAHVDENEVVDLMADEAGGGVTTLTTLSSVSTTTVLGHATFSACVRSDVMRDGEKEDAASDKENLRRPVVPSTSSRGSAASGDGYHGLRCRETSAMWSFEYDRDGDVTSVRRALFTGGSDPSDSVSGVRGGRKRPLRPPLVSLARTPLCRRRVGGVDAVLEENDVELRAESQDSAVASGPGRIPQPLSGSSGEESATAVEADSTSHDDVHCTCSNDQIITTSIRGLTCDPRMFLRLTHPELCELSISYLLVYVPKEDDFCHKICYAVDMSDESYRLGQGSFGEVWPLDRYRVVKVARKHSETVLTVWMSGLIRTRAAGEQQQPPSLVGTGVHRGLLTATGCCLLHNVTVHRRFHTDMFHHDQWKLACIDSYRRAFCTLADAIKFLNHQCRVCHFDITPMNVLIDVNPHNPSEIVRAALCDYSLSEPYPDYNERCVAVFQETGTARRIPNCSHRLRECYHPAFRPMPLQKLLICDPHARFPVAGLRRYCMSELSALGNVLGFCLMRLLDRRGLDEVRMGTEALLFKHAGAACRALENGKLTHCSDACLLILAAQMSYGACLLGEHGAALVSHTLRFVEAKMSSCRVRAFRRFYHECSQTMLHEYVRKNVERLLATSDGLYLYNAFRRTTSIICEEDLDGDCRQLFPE
UniProt P14635: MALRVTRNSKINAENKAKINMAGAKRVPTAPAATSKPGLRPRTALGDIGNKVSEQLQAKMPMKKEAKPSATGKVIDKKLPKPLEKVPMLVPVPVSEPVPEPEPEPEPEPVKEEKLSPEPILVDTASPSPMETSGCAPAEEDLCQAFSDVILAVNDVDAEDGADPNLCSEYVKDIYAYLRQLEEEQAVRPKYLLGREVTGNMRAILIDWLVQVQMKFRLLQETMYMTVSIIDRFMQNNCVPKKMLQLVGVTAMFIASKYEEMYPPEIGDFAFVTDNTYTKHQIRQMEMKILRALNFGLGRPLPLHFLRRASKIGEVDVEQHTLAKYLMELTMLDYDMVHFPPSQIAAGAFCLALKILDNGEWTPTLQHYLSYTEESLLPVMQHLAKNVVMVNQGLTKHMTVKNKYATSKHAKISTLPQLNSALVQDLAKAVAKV

Legend:
Assay in all cases: co-IP
[1] = molecular target: endogenous cyclin T1 (293T cells) (human (endogenous in 293T)) (UniProt O60563)
[2] = molecular target: pUL97-HA (human cytomegalovirus (HCMV)) (UniProt P16788)
[3] = molecular target: endogenous cyclin B1 (293T cells) (human (endogenous in 293T)) (UniProt P14635)

| Substance | binding [1] | binding [2] | binding [3] |
| --- | --- | --- | --- |
| pUL97-Flag, full-length pUL97(1-707) (from UniProt P16788 1-707) (enzyme) | binds | binds |  |
| pUL97(1-706)-Flag (from UniProt P16788 1-706) (domain or fragment) |  | binds | binds |
| pUL97 isoform M74 (middle isoform), from pUL97-Flag (from UniProt P16788 74-707) (enzyme) |  |  | binds |
| pUL97(1-657)-Flag (from UniProt P16788 1-657) (domain or fragment) |  | no binding | no binding |
| pUL97(1-692)-Flag (from UniProt P16788 1-692) (domain or fragment) |  | no binding | no binding |
| pUL97(1-595)-Flag (from UniProt P16788 1-595) (domain or fragment) |  | no binding | no binding |
| pUL97(1-702)-Flag (from UniProt P16788 1-702) (domain or fragment) |  | no binding | no binding |
